Laboratory results taken from PubChem BioAssay AID1346428 (National Center for Advancing Translational Sciences (NCATS), 2018).
Where “and” joins values, the source holds several entries; their conditions need not be identical. Equal entries are not always repeated. Among all 48,000 compounds or so, about 1,200 (2.5%) were called active. Inconclusive results (about 2%) are left out.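 The calls were made as follows: active = activation of at least 60% and not above a set upper limit (about 1 call in 100 departs from these limits); inconclusive = activation of 40% to 60%, or above that upper limit; inactive = activation under 40%.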 Some of the results follow.

target: Probable G-protein coupled receptor 32 (Homo sapiens) (UniProt O75388); assay: qHTS for Agonists of Human Resolvin D1 Receptor DRV1; conditions: CHO-K1 GPR32 beta-arrestin PathHunter luminescence, 90 min; at 76.9 µM; hits give high values; zero percent set by DMSO-only wells; also: 0% is about no effect
Sequence of UniProt O75388 (O75388 whole entry, looked up): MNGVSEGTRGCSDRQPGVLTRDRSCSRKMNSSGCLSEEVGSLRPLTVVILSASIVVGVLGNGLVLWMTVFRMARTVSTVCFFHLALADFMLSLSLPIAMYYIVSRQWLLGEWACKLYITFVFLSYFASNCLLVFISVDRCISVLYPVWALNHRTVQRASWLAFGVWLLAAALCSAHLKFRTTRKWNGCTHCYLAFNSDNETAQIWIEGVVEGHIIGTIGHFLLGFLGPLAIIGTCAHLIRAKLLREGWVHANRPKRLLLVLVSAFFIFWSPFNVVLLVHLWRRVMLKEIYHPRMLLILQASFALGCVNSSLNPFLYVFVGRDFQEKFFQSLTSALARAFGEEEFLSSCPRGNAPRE
In short: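 Step 1: seed CHO-K1 GPR32 beta-arrestin cells, 2,500/well, overnight at 37 °C. Step 2: add compounds, 90 min at 37 °C. Step 3: detection reagent, 1 h ambient, then luminescence.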

Row | SMILES | activation
1 | CC(=O)c1cccc(NC(=O)Cn2c(=O)c(CNc3ccc(C)cc3)cc3cc4c(cc32)OCCO4)c1 | inactive: -10.2%
2 | CCn1c(=O)c2cc(C(=O)N(CCCOC(C)C)Cc3ccco3)sc2c2ccccc21 | inactive: 41.8%
3 | Cc1cc(C)c(NC(=O)Cn2c(SCC(=O)NCc3ccccc3)nc3ccccc32)c(C)c1 | inactive: -4.81%
4 | Cc1ccc(-c2sc(C(=O)Nc3ccc(Br)cc3)cc2CC(=O)O)cc1 | inactive: -15.1%
5 | c1ccc(C(c2cccs2)c2c[nH]c3ccccc23)cc1 (stereo unspecified) | inactive: 44.3%
6 | Cc1cccc(-n2c(=O)c3c(c4cc(C)ccc4n3C)n(CC(=O)Nc3ccccc3C(F)(F)F)c2=O)c1 | inactive: -2.14%
7 | Oc1ccc(Cl)cc1Sc1cc(Cl)ccc1O | inactive: 48%
8 | COc1ccc(-c2nc3n(n2)C(c2ccccc2F)C(C(=O)Nc2cccnc2)=C(C)N3)cc1OC (stereo unspecified) | inactive: -13.6%
9 | Cc1ccc(CNc2ncnc3c2c(-c2ccccc2)cn3-c2cccc(Cl)c2)cc1 | inactive: -34.6%
10 | Cc1ccc(-c2noc(CN(C3CCCCC3)S(=O)(=O)c3ccc(Cl)cc3)n2)cc1 | inactive: -17.6%
11 | CCCCN(C(=O)c1cccc(S(=O)(=O)N2CCCCC2)c1)C1CCS(=O)(=O)C1 (stereo unspecified) | inactive: -19.4%
12 | COc1ccc(C2CC(=O)c3c([nH]c(C(=O)OC4CCC(C)CC4)c3C)C2)cc1OC (stereo unspecified) | inactive: -6.14%
13 | O=C(Nc1ccc(F)c(Cl)c1)N1CCN2CCCCC2C1 (stereo unspecified) | inactive: -10.7%
14 | COCCCNC(=O)c1sc2ncccc2c1-n1cccc1 | inactive: -12.2%
15 | CCN(CC)c1ccc(-c2nc(-c3ccncc3)no2)cc1[N+](=O)[O-] | inactive: 8.23%
16 | Cc1ccc2cccc(NC(=O)c3cccc4ccccc34)c2n1 | inactive: -11.5%
17 | CCc1cccc2sc(N3CCN(C(=O)C4CC4)CC3)nc12 | inactive: -23.5%
18 | Cc1cc(NC(c2nnc(-c3ccccc3)o2)c2ccccc2F)ccc1Br (stereo unspecified) | inactive: -9.58%
19 | COc1ccc(NCc2ccccc2-c2nnc(-c3ccccc3)o2)cc1Cl | inactive: -10.5%
20 | O[C@@H](CNC[C@H](O)[C@H]1CCc2cc(F)ccc2O1)[C@@H]1CCc2cc(F)ccc2O1 | active: 62.4%
21 | CCS(=O)(=O)Nc1cc(-c2cn3ccc(C)cc3n2)ccc1C | inactive: 25.7%
22 | CC(C)(C)OC(=O)N1CCC(c2c(C(=O)N3CCc4ccccc4C3)cnn2-c2ccc(Cl)cc2)CC1 | inactive: -18.4%

Row | SMILES | activation
23 | CCOc1ccccc1C(=O)N(Cc1ccc(N(C)C)cc1)CC1CCCO1 (stereo unspecified) | inactive: -23.2%
24 | CCN1C(=O)c2cccc3c(S(=O)(=O)Nc4ccc(O)c(C(=O)O)c4)ccc1c23 | inactive: -36.1%
25 | Cc1cc(C)cc(C(=O)N2CC(=O)Nc3ccc(C)cc3C2c2ccccc2)c1 (stereo unspecified) | inactive: -12.5%
26 | CCCCNC(=O)CSc1nc2cc3c(cc2c(=O)n1CCCC(=O)NCc1ccc2c(c1)OCO2)OCO3 | inactive: -9.79%
27 | Cc1ccc(-n2nc3ccc(NC(=O)c4cc5ccccc5o4)cc3n2)cc1 | inactive: -6.58%
28 | CCC(=O)Nc1sc2c(c1C(=O)Nc1ccccc1C)CCC(C)C2 (stereo unspecified) | inactive: -3.6%
29 | Cn1c(=O)c2sccc2n2c(CCC(=O)N3CCN(c4ccccc4)CC3)nnc12 | inactive: -12.4%
30 | O=C(O)c1cc(=O)[nH]c(=O)[nH]1 | inactive: -29.6%
31 | Cc1nc(N)nc(N)c1-c1ccc(Cl)c(Cl)c1 | inactive: -1.65%
32 | CCC(Cc1ccccc1)NC(=O)c1oc(=O)c2ccccc2c1-c1ccccc1 (stereo unspecified) | inactive: -12.2%
33 | CCOC(=O)c1cccc(NC(=O)NCCc2c(C)nn(C)c2C)c1 | inactive: 7.01%
34 | Cc1cccc(C)c1OCCCCn1c(C2CC(=O)N(c3ccc(F)cc3)C2)nc2ccccc21 (stereo unspecified) | inactive: -30.8%
35 | CCc1ccc(NC(=O)N2CCN(Cc3cc(=O)n4nc(-c5ccccc5OC)sc4n3)CC2)cc1 | inactive: -9.19%
36 | COC(=O)c1ccccc1NC(=O)c1noc2c1CSc1ccccc1-2 | inactive: -2.94%
37 | COc1ccc2nc(NC(=O)c3ccc(S(=O)(=O)N4CCC(C)CC4)cc3)sc2c1 | inactive: 24%
38 | CC(=O)NCCCCCC(=O)O | inactive: 5.21%
39 | CCn1c(=N)c(C(=O)NCc2cccnc2)cc2c(=O)n3cc(C)ccc3nc21 | inactive: 21.2%
40 | O=S(=O)(NCC(c1ccco1)N1CCN(c2ccc(F)cc2)CC1)c1ccccc1 (stereo unspecified) | inactive: -24.3%
41 | COC(=O)c1cc2occc2n1CC(=O)Nc1cccc(SC)c1 | inactive: 18.7%
42 | COc1ccc(-c2cc(C(=O)Nc3cc(C)ccc3O)no2)cc1OC | inactive: -7.43%
43 | COc1ccc(-c2nc(CSCC(=O)NCCc3ccc(C)cc3)c(C)o2)cc1OC | inactive: -22.4%
44 | CCN(CC)CCCNC(=O)c1c(C)oc2ncnc(N3CCOCC3)c12 | inactive: -13%

Row | SMILES | activation
45 | CCCCN(Cc1ccccc1)S(=O)(=O)c1ccc2c(c1)CC(C)N2C(=O)CC (stereo unspecified) | inactive: -2.07%
46 | COc1ccccc1Cc1nc2ccccc2nc1SCC(=O)NCCc1ccccc1 | inactive: -19.4%
47 | CCOc1ccc(CNC(=O)c2ccc(NC(=O)c3nsc4ccccc34)cc2)cc1 | inactive: -9%
48 | Cc1c(C(=O)NCc2ccc(Cl)cc2)sc2nc3n(c(=O)c12)CCCC3 | inactive: -21.9%
49 | O=c1n(CCCN2CCN(c3cccc(Cl)c3)CC2)nc2ccccn12 | inactive: 0.134% and inactive: -8.88%
50 | CCc1noc2nc(C)n(CC(=O)O)c(=O)c12 | inactive: -1.34%
51 | CCOC(=O)Cn1cc2c(c1-c1ccc(Cl)cc1)c(=O)n(C)c(=O)n2C | inactive: -5.56%
52 | CN(C(=O)CSc1nc2ccccc2n1CC(=O)NCc1ccc(F)cc1)c1ccc(F)cc1 | inactive: -1.17%
53 | CCS(=O)(=O)c1ccccc1C(=O)N(Cc1cccnc1)c1nc2cc(C)c(C)cc2s1 | inactive: -36.1%
54 | COc1ccc(OC)c(-c2cc(C(=O)Nc3ccc(C)c(C)c3)no2)c1 | inactive: -14%
55 | O=C(CSc1nc2ccsc2c(=O)n1Cc1ccc(F)cc1)NCc1ccc(Cl)cc1 | inactive: 13.1%
56 | Cc1cc(Nc2ccc(Br)cc2)n2nc(-c3ccccc3C)nc2n1 | inactive: -38.1%
57 | CC1=C(C(=O)Nc2ccc(C)cc2C)C(c2ccccc2)n2nc(SCC(=O)c3ccc(C)cc3)nc2N1 (stereo unspecified) | inactive: -3.43%
58 | CN1c2ccc(Cl)cc2-c2nc(SCC(=O)NCc3ccc(F)cc3)ncc2S1(=O)=O | inactive: 8.74%
59 | CCCCCCOc1ccc(/C=C/C(=O)Nc2sc3c(c2C(=O)OC)CCC3)cc1OC | inactive: 32.5%
60 | CCc1ccccc1NC(=O)CCNS(=O)(=O)c1ccc2c(c1)CCCC(=O)N2 | inactive: 30%
61 | COc1ccc(NC(=O)Cn2c(=O)oc3ccccc32)cc1 | inactive: -9.6%
62 | Oc1ccc(-c2nc(-c3ccc(F)cc3)c(-c3ccncc3)[nH]2)cc1 | inactive: -9.57%
63 | CCC(C)c1ccc(OCC(=O)Nc2cccc3ccc(C)nc23)cc1 (stereo unspecified) | inactive: -26.1%
64 | Cc1nn(C)c2c1c(C(F)(F)F)cc(=O)n2CC(=O)NCc1ccc(OC(C)C)cc1 | inactive: 39.1%
65 | O=C(NCC(c1ccc2c(c1)OCO2)N1CCOCC1)c1ccccc1 (stereo unspecified) | inactive: -15.4%
66 | Cc1c(O)nc(SCC(=O)Nc2ccc(Cl)cc2Cl)n(-c2ccc(F)cc2)c1=O | inactive: -9.86%

Row | SMILES | activation
67 | CCC(C)NC(=O)c1cc2cc(S(=O)(=O)N3CCCCC3)ccc2n1C (stereo unspecified) | inactive: -20.4%
68 | CCN1CCN(c2ncc3c(n2)CCN(Cc2cc(Br)cs2)C3)CC1 | inactive: -34.1%
69 | CC(C)(C)c1ccc(CSC2=Nc3ccccc3C3=NC(CC(=O)NCc4cccs4)C(=O)N23)cc1 (stereo unspecified) | inactive: -32.7%
70 | C/C(=N/NC(=O)c1ccncc1)C(=O)O | inactive: -36.6%
71 | COc1cc(Cn2c(=O)oc3ccc(C)cc32)ccc1OCCC(C)C | inactive: -19.6%
72 | CC(C)(C)c1ccc(S(=O)(=O)N2CCC(Oc3ccc(-n4cnnn4)cc3)CC2)cc1 | inactive: -5.64%
73 | Cc1cn(C)c(CC(=O)NCc2cccc(Cl)c2)c1C(=O)O | inactive: -1.32%
74 | O=C(CNC(=O)c1ccc(Cl)cc1)OCc1cc(=O)n2nc(C3CC3)sc2n1 | inactive: -6.72%
75 | Cc1ccc(CNS(=O)(=O)c2ccc(N3CCCCS3(=O)=O)cc2)cc1 | inactive: 25.1%
76 | Cc1ccc(Cl)cc1NC(=O)Cn1c(=O)cc(C)c2c(C)nn(C)c21 | inactive: -5.34%
77 | Cc1cc(C)c(S(=O)(=O)Nc2ccc3oc(C)c(C(=O)OC(C)C)c3c2)cc1C | inactive: 26.9%
78 | Cc1oc(-c2cccc(Cl)c2)nc1CN1CCC(C(=O)NC(C)C)CC1 | inactive: -7.59%
79 | O=C(COc1ccc(Br)cc1Br)Nc1ccc(S(=O)(=O)Nc2ncccn2)cc1 | inactive: 35.9%
80 | Cc1ccc(CNC(=O)CCNS(=O)(=O)c2ccc3c(c2)oc(=O)n3C)cc1 | inactive: -3.54%
81 | Cc1ccc(-n2nc3cc(C)c(NC(=O)c4ccc(-c5ccccc5)o4)cc3n2)cc1 | inactive: -13.5%
82 | COc1cccc(C2CC(=O)Nc3c2c(=O)n(C)c2nc4ccccc4n32)c1OC (stereo unspecified) | inactive: 3.69%
83 | O=C(CCn1c(=O)c2sccc2n(Cc2ccc(F)cc2)c1=O)NCc1ccc2c(c1)OCO2 | inactive: -4.7%
84 | COc1cccc(Nc2nnc(-c3cc4ccc(O)cc4oc3=O)s2)c1 | inactive: -7.07%
85 | CCOc1ccc(NC(=O)Cn2c(=O)n(CCc3ccccc3)c(=O)c3c4c(sc32)CCCC4)cc1 | inactive: -4.69%
86 | Cc1ccc(NC(=O)CC2Oc3ccc(C)cc3NC2=O)c(C)c1 (stereo unspecified) | inactive: 0.244%
